Data as given in the supplement of paper PMC11417369.
± gives the standard deviation of the averaged measurements. Some of the results follow.

Each sequence was assayed on PfAP2-I AP2 domain 3 (GST-tagged) (assay: gcPBM binding intensity (ln(normalized median fluorescence intensity)); higher = stronger DNA binding).
Summary of the method: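 Binding of GST-tagged P. falciparum DNA-binding domains, expressed in E. coli and used at about 25 μg on average, was carried out for 1 h in 1× PBS containing 1% milk, 0.2 mg/ml BSA, 0.5% salmon testes DNA and 0.03% Triton X-100. The target was an Agilent 4 × 180k array of primer-extended double-stranded 36-bp intergenic genomic probes plus negative controls, read with Alexa488 anti-GST antibody at 488 nm. Binding intensity is the highest Masliner-normalised natural-log median intensity across replicate spots of either probe orientation.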

| Sequence | gcPBM binding intensity (ln) |
| --- | --- |
| GTATATATATATATATGTACATATATGTAGATATAT [XGTACX_site5431] | 7.88 ± 0.47 |
| ATATGTACGCAAGGTGCACACTGGTGCATTAAAAAA [CACACA_site1801] | 12.1 ± 0.21 |
| TACATATGGCACATATGTACACACGTATAGATAATA [XGTACX_site4123] | 9.08 ± 0.41 |
| ATGAATATAAAATATACACACTTATATATCGAATGA [CACACA_site6240] | 7.32 ± 0.58 |
| TTTTATTTTTTCTCACGTACAAATATATAATTTTTT [XGTACX_site6952] | 7.96 ± 0.56 |
| AATATATCCTATTCGAACAAAAATACATGCACATAT [CACACA_negctrl_site1058] | 8.86 ± 0.37 |
| TATCATTATGTAGAAACACACATAAGCTTCGGTTCA [CACACA_site2766] | 7.42 ± 0.59 |
| GGGGAAAAAAAAAAAGGAAAAAGAAAAAAAAAAAAA [GTGCAC_negctrl_site489] | 8.04 ± 1 |
| ATAAAATTTATATAAGCACACAAATATATATTTATA [CACACA_site9083] | 8.12 ± 0.23 |
| TTATGGTTATACATATGTACATATATATATATATAT [XGTACX_site1494] | 9.22 ± 0.5 |
| AATTGCATAATATATTCACACATTTTTAAGTGATAC [CACACA_site5679] | 7.92 ± 0.47 |
| GTAAAGGCTATATATGTGCACATTTTTTTTTTTTTT [GTGCAC_site9925] | 9.54 ± 0.73 |
| ATATTATTTTAAAAAAGTACATTTTTAAGAATTCTT [XGTACX_site6630] | 7.86 ± 0.47 |
| AACATATAAATAAACTGTACATATATATATATATAT [XGTACX_site1056] | 9.45 ± 0.75 |
| AATATTACGTGTTTGGTATTTTTCGATGTTGGCAGG [XGTACX_negctrl_site59] | 7.8 ± 0.5 |
| TAAATAAATAAAAAAACACACATATAAATATAAATA [CACACA_site7815] | 7.36 ± 0.64 |
| TGTTTCCTATTTTGTATGCACTTTTTGTCATAATTA [GTGCAC_site9921] | 10.1 ± 0.21 |
| TATACGGACTCTAAGTGTACTTAAAATAATTCAAAC [XGTACX_site3606] | 7.75 ± 0.53 |
| TATGTGTGACAAAATTGTACGGTCTCTTTATTTTGT [XGTACX_site2679] | 7.72 ± 0.54 |

| Sequence | gcPBM binding intensity (ln) |
| --- | --- |
| TATTATATAATAAAAATTATTATTATTTGTATAAAT [CACACA_negctrl_site195] | 7.21 ± 0.42 |
| TATATTGCCCTTCACACACACACATATATATATATA [CACACA_site2492] | 9.55 ± 0.54 |
| TAAAAATGTTGACACACACACATAAATATATTTTAT [CACACA_site7227] | 7.92 ± 0.45 |
| ATTTTTATACCTAAGTGTACATGATGTTTTCTTTTT [XGTACX_site973] | 7.95 ± 0.73 |
| CATTTTTAAAAAAATTGTACAAAACATATATGTGTA [XGTACX_site3396] | 7.71 ± 0.32 |
| TTCCTTTTGAACTCTCGTACGCGTAGGTGTTATTAT [XGTACX_site6264] | 7.89 ± 0.49 |
| TATTAAAAGTAAAAAACACACATGGATATATACATA [CACACA_site3959] | 7.67 ± 0.64 |
| TTACTATATAATATGTGTACACAACATATAATATAT [XGTACX_site1383] | 8.07 ± 0.41 |
| GTTGTGTAATTCGTAACACACATAAAATATAAATAA [CACACA_site7799] | 7.72 ± 0.59 |
| AAAAAAAAAAAAAAAAAAAAAAAAATATATATATAT [CACACA_negctrl_site436] | 9.67 ± 0.13 |
| TTTTTTTTTTGATGTTGTACTTATATACTATATAAT [XGTACX_site2778] | 7.92 ± 0.45 |
| ATATATATATATTGCACACATATAAATATATATATT [CACACA_site807] | 10.4 ± 0.42 |
| CAACCTTTTTTGTTGGTGCATAATTTTTTTTTCTTT | 10.9 ± 0.52 |
| AATATATAGCTAAAAACACACAAATATATACTCATA [CACACA_site5904] | 7.54 ± 0.48 |
| TTTATAAAATTTATTGCACACAATTATTTTATAATT [CACACA_site2489] | 9.89 ± 0.49 |
| ATACATTTTTTTTTCACACATATATATATATTTAAT [CACACA_site5995] | 8.38 ± 0.6 |
| CTCACGTAGCTTGATGCATGCAAACTTGAGTAAAAG [TGCATGCA_site409] | 7.78 ± 0.81 |
| CATATACTCGGACACACACACACACCGACAAAAAAA [CACACA_site4433] | 8.25 ± 0.28 |
| TATCATAAAATATGTAGTACGTATATATATAAAAAT [XGTACX_site5455] | 7.96 ± 0.5 |

| Sequence | gcPBM binding intensity (ln) |
| --- | --- |
| TTTATAGTTTTTAATAGTACACATATTTTTAAGTAT [XGTACX_site5498] | 7.89 ± 0.2 |
| TTTTGTGGAGGATGGTGTACGGTATTGTATTATTAC [XGTACX_site1942] | 8.17 ± 0.41 |
| TAAACAGACATACATACACACATACATACAGACATA [CACACA_site6997] | 7.74 ± 0.26 |
| ATAGTTTTATATAAATGTACAAATGATTTCAAATAG [XGTACX_site8236] | 7.89 ± 0.56 |
| AACATGTATATATTATGTACATATGTTAAAATGATA [XGTACX_site6217] | 7.95 ± 0.4 |
| TAGCGGCGGTATCATGCACACGTATATATTGTAACA [CACACA_site8453] | 8.41 ± 0.54 |
| GAGTTAATTTTTTCGTGTACTTGAAAATATTTTTTT [XGTACX_site6392] | 7.96 ± 0.49 |
| TTACCTTTTTCTAATGGTACACATAAAATATCATTT [XGTACX_site6825] | 7.79 ± 0.36 |
| TTTTCTTACACGAATTTTAAATTCAATATTAAACAT [CACACA_negctrl_site286] | 8.03 ± 0.44 |
| GTGGAAATATAACACATTTTTTTTAATAATTATATT [TGCATGCA_negctrl_site522] | 7.76 ± 0.52 |
| TTAGCAACTATTACTACACACATTTGTATATAACTT [CACACA_site6850] | 7.96 ± 0.68 |
| TAAATTAATACCTATGCACACATTTTTTTTTTTAAA [CACACA_site1238] | 8.32 ± 0.47 |
| TTTATTATAATATGTTGTACAAGACGTTTCAGTATA [XGTACX_site4486] | 7.99 ± 0.23 |
| AAATTATCTTAATAGGATGTTCAAGGAGAAAGATGA [CACACA_negctrl_site1032] | 7.72 ± 0.61 |
| CTTAAATTTTTAAATACACACATACACCCATACACA [CACACA_site4461] | 8.53 ± 0.22 |
| TTTTTTTTAAATATCACACACATATAATATATTCTA [CACACA_site3668] | 7.58 ± 0.54 |
| AAACCCTATTCAATGCAATAATTTTATAATTTTTTT [TGCATGCA_negctrl_site434] | 7.78 ± 0.47 |
| GCTTCATTTTAAACTTGTACTTATTTTTTGGTAAAT [XGTACX_site8879] | 8.28 ± 0.42 |
